# In patent publication US9040488B2, “Imino sugar derivatives demonstrate potent antiviral activity and reduced toxicity” (Baruch S. Blumberg Institute, priority 2008, dated 2015):
# Assays:
# [1] = in vivo
# [2] = in vivo; remark: listed apart in the source
compound,measurement,setting,value
CC(=O)O.CC1CCC(OCCCCCCN2C[C@H](O)[C@@H](O)[C@H](O)[C@H]2CO)CC1 (stereo partly shown) [CM-9-78],"half life, oral versus intraperitoneal",[1],longer half life
same,"peak serum compound concentration, oral versus intraperitoneal",[1],higher peak serum compound concentrations
same,time with plasma concentration above 30 μM,"[1]; po, 100 mg/kg",at least 10 hours
same,tolerability judged by body weight and food consumption,[2],well tolerated
